# Data taken from the supplement of paper PMC12217912.
# The list shows a part of the results. Sequences were assembled here from the parent chain. Inactive controls read about 0.05.
# B1: TEV protease; numbered along this chain (parent)
# chain: MGESLFKGPRDYNPISSSICHLTNESDGHTTSLYGIGFGPFIITNKHLFRRNNGTLVVQSLHGVFKVKDTTTLQQHLVDGRDMIIIRMPKDFPPFPQKLKFREPQREERICLVTTNFQTKSMSSMVSDTSCTFPSGDGIFWKHWIQTKDGQCGSPLVSTRDGFIVGIHSASNFTNTNNYFTSVPKNFMELLTNQEAQQWVSGWRLNADSVLWGGHKVFMVKPEEPFQPVKEATQL
# Variants of: B1
# Assay: raw area under fraction-flipped curve 0-4 h after induction (AUC4h, not background-subtracted), DNA-recorder readout of cleavage of the substrate (dimensionless); higher = more cleavage of the substrate by the protease variant
# Details: temperature: 34 °C; time window: 0-4 h after rhamnose induction
# 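Note: Bxb1 expression induced with 0.2% (w/v) L-rhamnose at OD600 near 0.5, cultures sampled hourly, flipped fraction per protease–substrate barcode pair counted by paired-end Illumina sequencing.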
Variant,area with substrate ENLYCQS,area with substrate ENLYEQS,area with substrate ENLYHQS,area with substrate ENLYMQS,area with substrate ENLYPQS,area with substrate ENLYRQS,area with substrate ENLYSQS,area with substrate ENLYVQS,area with substrate ENLYWQS,area with substrate ENLYYQS,area with substrate ENLYKQS,area with substrate ENLYNQS,area with substrate ENLYDQS,area with substrate ENLYGQS,area with substrate ENLYIQS,area with substrate ENLYQQS,area with substrate ENLYTQS,area with substrate ENLYLQS
MGESLFKGPRDYNPISSSICHLTNESDGHTTSLYGIGFGPFIITNKHLFRRNNGTLVVQSLHGVFKVKDTTTLQQHLVDGRDMIIIRMPKDFPPFPQKLKFREPQREERICLVTTNFQTKSMSSMVSDTSCTFPSGDGIFWKHWIQTKDGQCGSPLVSTRDGFIVGIHSASNFTNTNNYFTSVPKNFMELLFNQEAQQWVSGWRLNADSVLWGGHKVFMVKPEEPFQPVKEATQL [T192F],0.0633,0.0539,0.0773,0.0864,0.0759,0.0643,0.0747,0.132,0.0523,0.0721,,,,,,,,
MGESLFKGPRDYNPISSSICHLTNESDGHTTSLYGIGFGPFIITNKHLFRRNNGTLVVQSLHGVFKVKDTTTLQQHLVDGRDMIIIRMPKDFPPFPQKLKFREPQREERICLVTTNFVTKSMSSMVSDTSCTFPSGDGIFWKHWIQTKDGQCGSPLVSTRDGFIVGIHSASNFTNTNNYFTSVPKNFMELLTNQEAQQWVSGWRLNADSVLWGGHKVFMVKPEEPFQPVKEATQL [Q118V],0.0721,0.0664,,,0.06,,0.0722,0.107,0.0859,,0.0079,0.0609,,,,,,
MGESLFKGPRDYNPISSSICHLTNESDGHTTSLYGIGFGPFIITNKHLFRRNNGTLVVQSLHGVFKVKDTTTLQQHLVDGRDMIIIRMPKDFPPFPQKLKFREPQREERICLVTTNFQTKSMSSMVSDTSCTFPSGDGIFWKHWIQTKDGQCGSPLVSTRDGFIVGIHSASNFTNTNNYFTSVPKNFMELLTNQEAQQWVSGWRLNADSVLWGGHKVFMDKPEEPFQPVKEATQL [V220D],0.0968,,0.0719,0.0867,,,,,0.13,0.0712,0.0634,0.0727,0.0644,0.0604,0.133,0.0613,0.0854,
MGESLFKGPRDYNPISSSICHLTNLSDGHTTSLYGIGFGPFIITNKHLFRRNNGTLVVQSLHGVFKVKDTTTLQQHLVDGRDMIIIRMPKDFPPFPQKLKFREPQREERICLVTTNFQTKSMSSMVSDTSCTFPSGDGIFWKHWIQTKDGQCGSPLVSTRDGFIVGIHSASNFTNTNNYFTSVPKNFMELLTNQEAQQWVSGWRLNADSVLWGGHKVFMVKPEEPFQPVKEATQL [E25L],0.0742,0.072,0.0741,0.0907,0.0637,0.055,0.0508,0.122,0.0748,0.0672,,0.0745,0.0518,0.0697,0.122,0.0551,0.115,
MGESLFKGPRDYNPISSSICHLTNESDGHTTSLYGIGFGPFIITNKHLFRRNNGTEVVQSLHGVFKVKDTTTLQQHLVDGRDMIIIRMPKDFPPFPQKLKFREPQREERICLVTTNFQTKSMSSMVSDTSCTFPSGDGIFWKHWIQTKDGQCGSPLVSTRDGFIVGIHSASNFTNTNNYFTSVPKNFMELLTNQEAQQWVSGWRLNADSVLWGGHKVFMVKPEEPFQPVKEATQL [L56E],0.0555,0.0456,,0.0519,0.0455,,,,,0.056,0.0484,0.0504,,0.0482,,,0.0434,
MGESLFKGPRDYNPISSSICHLTNESDGHTTSLYGIGFGPFIITNKHLFRRNNGTLVVQSLHGVFKVKDTTTLQQHLVDGRDMIIIRMPKDFPPFPQKLKFREPQREERICLVTTNFQTKSMSSMVSDTSCTFPSGDGIFWKHWIQTKDGQCGSPLVSTRDGFIVGIHSASNFTNTNNYFTSVPKNFMELGTNQEAQQWVSGWRLNADSVLWGGHKVFMVKPEEPFQPVKEATQL [L191G],0.0682,0.0642,0.0594,0.051,,0.046,,0.0496,0.0631,0.0701,0.0418,0.0549,0.0359,0.0506,0.0667,0.0574,0.0525,
MGESLFKGPRDYNPISSSICHLTNESDGHTTSLYGIGFGPFIITNKHLFRRNNGTLVVQSLHGVFKVKDTTTLQQHLVDGRDMIIIRMPKDFPPFPQKLKFREPQREERICLVTTNFQTKSMSSMVSDTSCTFPSGDGIFWKHWIQTKDGQCGSPLVSTRYGFIVGIHSASNFTNTNNYFTSVPKNFMELLTNQEAQQWVSGWRLNADSVLWGGHKVFMVKPEEPFQPVKEATQL [D161Y],0.0668,0.0578,,0.0329,0.0575,0.0605,,0.0548,0.0677,,0.0615,0.0611,0.0494,0.0635,0.0662,0.0535,0.0678,0.0557
MGESLFKGPRDYNPISSSICHLTNESDGHTTSLYGIGFGPFIITNKHLFRRNNGTLVVQRLHGVFKVKDTTTLQQHLVDGRDMIIIRMPKDFPPFPQKLKFREPQREERICLVTTNFQTKSMSSMVSDTSCTFPSGDGIFWKHWIQTKDGQCGSPLVSTRDGFIVGIHSASNFTNTNNYFTSVPKNFMELLTNQEAQQWVSGWRLNADSVLWGGHKVFMVKPEEPFQPVKEATQL [S60R],0.0787,0.0611,0.0607,0.0789,,0.055,,,,0.0612,0.0541,0.0685,0.0584,0.0543,0.118,0.0783,0.0722,0.108
MGESLFKGPRDYNPISSSICHLTNESDGHTTSLYGIGFGPFIITNKHLFRRNNGTLVVQSLHGVFKVKDTTTLQQHLVDGRDMIIIRMPKDFPPFPQKLKFREPQREERICLVTTNFQTKSMSSMVSDTSCTFPSGDGIFWKHWIITKDGQCGSPLVSTRDGFIVGIHSASNFTNTNNYFTSVPKNFMELLTNQEAQQWVSGWRLNADSVLWGGHKVFMVKPEEPFQPVKEATQL [Q146I],0.0897,0.0725,0.0747,0.0851,0.0772,0.0706,,0.138,,,0.0291,,0.0801,0.0728,0.0786,,0.0904,0.0844
